# In PubChem BioAssay (NCATS):
# Where “and” joins values, the source holds several entries; their conditions need not be identical. Identical values can stand only once. The inconclusive results got no clear call from the source; some entries with a clear call stand among them for comparison. For some assays here: Potencies beside an inconclusive call are fits to weak or partial responses and may not hold up. Calls of active or inactive are those of the source. Unless noted, the call rests on the fitted dose curve; in most records, active means well fitted curve in the direction sought with a large enough effect; inconclusive means small, poorly fitted or top-dose-only effect, or another doubt; inactive means no such curve, though single readings can be large; an effect the other way counts as inactive or inconclusive.
# Legend:
# [1] = Primary qHTS for small molecule stabilizers of the endoplasmic reticulum resident proteome: Secreted ER Calcium Modulated Protein (SERCaMP) assay (AID 1508630); settings: SH-SY5Y GLuc-SERCaMP (Gaussia luciferase released on ER calcium loss) secretion, thapsigargin, luminescence; activity change, negative = inhibition: at 38.4 µM (top of the series) unless noted; further: potency means the concentration at half of the fitted maximal effect
# How it was run: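 GLuc-SERCaMP-expressing SH-SY5Y cells, pretreated 16 h with compound, are challenged with thapsigargin to empty ER calcium stores; after 4 h, coelenterazine is added directly to the medium and luminescence is imaged.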
# NIH3T3 = assay: Cytotoxic Profiling of Annotated Libraries Using Quantitative High-Throughput Screening (AID 1296008); settings: Five cell lines viability, CellTiter-Glo ATP luminescence, 48-72 h; max response: stronger effect = lower value; further: nearly all actives have a fitted effect of over 60% in size; further: potency means the concentration at half of the fitted maximal effect; on max response: on the % scale 0 is the no-effect control and ±100 the full control effect
# How it was run: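 Compounds were pin-transferred onto cells and incubated 48 or 72 hr at 37 degree Celsius, 95% humidity. CellTiter-Glo was added, plates sat 10 min at room temperature, then ATP-coupled luminescence was imaged as the viability read-out.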
# CAOV3 = assay: Primary qHTS to identify gynecologic anti-cancer compounds using libraries of approved drugs and bioactive compounds (AID 1345084); settings: Gynecologic cancer cell panel viability, ATPlite luminescence, 48 h; activity change, negative = cytotoxicity: at 57.5 µM (top of the series); further: nearly all actives have a fitted effect of over 55% in size; further: potency means the concentration at half of the fitted maximal effect; on activity change, negative = cytotoxicity: on the % scale 0 is the no-effect control and ±100 the full control effect
# How it was run: (§1)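 In this quantitative HTS, cell killing is estimated from loss of ATP-dependent luciferase light. Cells see five compound concentrations over a 48 h exposure.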
# OV90 = assay: as above; settings: Gynecologic cancer cell panel viability, ATPlite luminescence, 48 h; series mostly up to 57.5 µM
# How it was run: as §1
# SKOV3 = assay: as above; settings: Gynecologic cancer cell panel viability, ATPlite luminescence, 48 h; series mostly up to 57.5 µM
# How it was run: as §1
# Tov-21-G = assay: as above; settings: Gynecologic cancer cell panel viability, ATPlite luminescence, 48 h; activity change, negative = cytotoxicity: at 57.5 µM (top of the series) unless noted
# How it was run: as §1
# [2] = tested on: Zika virus NS2B-NS3 protease (unlinked complex); assay: Primary screen GU Rhodamine qHTS for Zika virus inhibitors: Unlinked NS2B-NS3 protease assay (AID 1347159); further: nearly all actives have a fitted effect of over 60% in size; further: potency means the concentration at half of the fitted maximal effect
# How it was run: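 Noncovalent NS2B hydrophilic domain/NS3 protease complex (25 nM final) in 10 mM Tris-HCl pH 8.0, 0.01% Tween 20, preincubated 15 min with compounds (up to 114 microM), then 1.5 microM Rhodamine110 substrate. Fluorescence change over 15 min fitted to 4-parameter Hill.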
# [3] = Primary qHTS for inhibitors of nuclear receptor binding SET domain protein 2 (NSD2) in an RCH-ACV wild type WT cells (2C) (AID 1645877); settings: activity change, negative = cell killing: at 44.9 µM (top of the series) unless noted; further: potency means the concentration at half of the fitted maximal effect; nearly all actives have a fitted effect of over 70% in size
# [4] = Primary redox qHTS assay for identification of artifact compounds. (AID 1845223); settings: Amplex Red/HRP redox cycling with DTT, fluorescence; redox activity (% of DA3003): at 53.8 µM (top of the series); further: potency means the concentration at half of the fitted maximal effect;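 on redox activity (% of DA3003): 0% = DMSO and 100% = reference compound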
# How it was run: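 Amplex Red (25 uM) and HRP (250 mU/mL) in HBSS, with compounds for 15 min, then 250 uM DTT for 30 min, room temperature, dark. Fluorescence 525/598 nm read; normalized to DMSO and 10 uM DA3003; Hill fit.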
# HeLa = assay: Primary qHTS to identify gynecologic anti-cancer compounds using libraries of approved drugs and bioactive compounds (AID 1345084); settings: Gynecologic cancer cell panel viability, ATPlite luminescence, 48 h; activity change, negative = cytotoxicity: at 57.5 µM (top of the series); further: nearly all actives have a fitted effect of over 55% in size; further: potency means the concentration at half of the fitted maximal effect; on activity change, negative = cytotoxicity: on the % scale 0 is the no-effect control and ±100 the full control effect
# How it was run: as §1
# PA-1 = assay: as above; settings: Gynecologic cancer cell panel viability, ATPlite luminescence, 48 h; series mostly up to 57.5 µM
# How it was run: as §1
# C33A = assay: as above; settings: Gynecologic cancer cell panel viability, ATPlite luminescence, 48 h; series mostly up to 57.5 µM
# How it was run: as §1
# CASKI = assay: as above; settings: Gynecologic cancer cell panel viability, ATPlite luminescence, 48 h; series mostly up to 57.5 µM
# How it was run: as §1
# [5] = P-glycoprotein substrates identified in KB-8-5-11 adenocarcinoma cell line, qHTS therapeutic library screen (AID 1346987); further: nearly all actives have a fitted effect of over 65% in size; further: potency means the concentration at half of the fitted maximal effect
# How it was run: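 KB-8-5-11: colchicine-selected sub-line of KB-3-1 over-expressing P-gp; assay medium lacked colchicine. 72 h drug exposure at 37 degree C, CellTiter-Glo.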
# [6] = Primary fluorescence-based thiol-reactive (MSTI) qHTS assay for identification of artifact compounds. (AID 1845221);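 further: potency means the concentration at half of the fitted maximal effect; thiol-reactive compounds lower the probe fluorescence signal; nearly all actives have a fitted effect of over 65% in size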
# How it was run: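 One-hour, room-temperature, dark incubation of compound with 4 uM MSTI in PBS (pH 7.4, 2% DMSO) precedes a fluorescence read at 525 nm excitation, 598 nm emission; Hill-equation fitting yields concentration-response values.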
# Es-2 = assay: Primary qHTS to identify gynecologic anti-cancer compounds using libraries of approved drugs and bioactive compounds (AID 1345084); settings: Gynecologic cancer cell panel viability, ATPlite luminescence, 48 h; series mostly up to 57.5 µM; further: nearly all actives have a fitted effect of over 55% in size; further: potency means the concentration at half of the fitted maximal effect; on activity change, negative = cytotoxicity: on the % scale 0 is the no-effect control and ±100 the full control effect
# How it was run: as §1
# Hek293T = assay: as above; settings: Gynecologic cancer cell panel viability, ATPlite luminescence, 48 h, control line for the selectivity index; activity change, negative = cytotoxicity: at 57.5 µM (top of the series) unless noted
# How it was run: as §1
# [7] = Primary qHTS for inhibitors of nuclear receptor binding SET domain protein 2 (NSD2) in an isogenic RCH-ACV NSD2 p.E1099K mutant (9B) (AID 1645876); further: nearly all actives have a fitted effect of over 70% in size; further: potency means the concentration at half of the fitted maximal effect
# Tov112D = assay: Primary qHTS to identify gynecologic anti-cancer compounds using libraries of approved drugs and bioactive compounds (AID 1345084); settings: Gynecologic cancer cell panel viability, ATPlite luminescence, 48 h; series mostly up to 57.5 µM; further: nearly all actives have a fitted effect of over 55% in size; further: potency means the concentration at half of the fitted maximal effect
# How it was run: as §1
# [8] = target: Cytochrome P450 2D6 (Homo sapiens) (UniProt P10635); assay: Cytochrome P450 family 2 subfamily D member 6 (CYP2D6) small molecule antagonists: luciferase biochemical (cell-free) qHTS assay (AID 1645840; active means well fitted curve in the direction sought with a large enough effect in the repeat runs; inconclusive means weak or mixed curves; inactive means no such curve, though single readings can be large; an effect the other way counts as inactive or inconclusive)
# How it was run: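 P450-Glo luminescent screen: recombinant CYP2D6 enzyme–proluciferin substrate mix preincubated with compound 10 min at room temperature, then NADPH regeneration added for 1 h at room temperature. Detection reagent added for 20 min; luciferin light read as relative luminescence units.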
# Tags describe the fitted curve by direction and shape.
# UniProt P10635, sequence (P10635 whole entry, looked up): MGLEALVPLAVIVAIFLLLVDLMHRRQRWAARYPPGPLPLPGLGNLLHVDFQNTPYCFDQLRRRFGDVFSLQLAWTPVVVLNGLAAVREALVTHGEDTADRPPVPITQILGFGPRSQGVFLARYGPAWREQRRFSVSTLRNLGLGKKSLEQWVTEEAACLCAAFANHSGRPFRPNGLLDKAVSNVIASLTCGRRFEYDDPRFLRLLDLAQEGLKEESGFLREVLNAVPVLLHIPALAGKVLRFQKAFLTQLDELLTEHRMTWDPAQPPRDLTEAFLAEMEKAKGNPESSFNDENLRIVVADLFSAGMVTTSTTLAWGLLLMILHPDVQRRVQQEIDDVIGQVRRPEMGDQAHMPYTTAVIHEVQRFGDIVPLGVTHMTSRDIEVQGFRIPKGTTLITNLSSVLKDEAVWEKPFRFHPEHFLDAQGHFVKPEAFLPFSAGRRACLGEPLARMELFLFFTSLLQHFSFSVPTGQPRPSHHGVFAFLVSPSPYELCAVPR
smiles,measurement,setting,value
O=C(O)Cc1cccc2ccccc12,Potency,[1],"inconclusive: 10 µM [inhibitor, full curve] and inconclusive: 20 µM [inhibitor, single point]"
same,max response,NIH3T3,inactive: -0.562% and inactive: 0.69%
same,Potency,CAOV3,"inconclusive: 15.8 µM [cytotoxic, single point]"
same,Potency,OV90,"inconclusive: 70.8 µM [rising, single point]"
same,Potency,SKOV3,"inconclusive: 35.5 µM [cytotoxic, partial curve, poor fit] and inactive"
same,Potency,Tov-21-G,inactive
COc1ccc(C(=O)O[C@H]2C=COC=C3C=C4C(=O)N(C)C(=S)C(=O)N4[C@@H]32)cc1Oc1cc(C=O)ccc1O,Potency,[2],"inconclusive: 6.31 µM [inhibitor, full curve]"
same,Potency,[3],active: 2.82 µM
same,Potency,[4],inactive
same,Potency,NIH3T3,"inconclusive: 14.2 µM [inhibitor, single point]"
same,Potency,CAOV3,"inconclusive: 17.8 µM [cytotoxic, single point]"
same,Potency,HeLa,inactive
same,Potency,PA-1,"inconclusive: 17.8 µM [cytotoxic, single point]"
same,Potency,Tov-21-G,"inconclusive: 12.6 µM [cytotoxic, single point]"
CC1=C(C(=O)OCc2ccccc2)C(c2ccc(-c3ccccc3)cc2)NC(=O)N1CCCCCC(=O)O (stereo not drawn),Potency,[3],"inconclusive: 29 µM [inhibitor, single point]"
same,Potency,NIH3T3,"inconclusive: 29.1 µM [inhibitor, single point]"
same,Potency,C33A,"inconclusive: 28.2 µM [rising, partial curve, poor fit]"
same,Potency,CASKI,inactive
C=C1C(=O)O[C@@H]2/C=C(\CO)CC/C=C(/C=O)C[C@H](O)[C@@H]12,Potency,[5],"inconclusive: 29.1 µM [inhibitor, single point]"
same,Potency,[2],"inconclusive: 44.7 µM [inhibitor, partial curve, poor fit]"
same,Potency,[6],active: 11.9 µM
same,Potency,[4],inactive
same,Potency,NIH3T3,"inconclusive: 25.9 µM [inhibitor, single point]"
same,Potency,CAOV3,"inconclusive: 28.2 µM [cytotoxic, single point]"
same,Potency,Es-2,"inconclusive: 35.5 µM [cytotoxic, single point]"
same,Potency,Hek293T,"inconclusive: 25.1 µM [cytotoxic, single point]"
same,Potency,PA-1,"inconclusive: 39.8 µM [cytotoxic, single point]"
same,Potency,SKOV3,"inconclusive: 22.4 µM [cytotoxic, partial curve, poor fit]"
same,Potency,Tov-21-G,active: 28.2 µM
C=C(C)[C@@H]1CC[C@]2(C(=O)O)CC[C@]3(C)C(CCC4[C@@]5(C)C[C@@H](O)[C@H](O)C(C)(C)C5CC[C@]43C)C12 (stereo partly drawn),Potency,[2],"inconclusive: 7.94 µM [inhibitor, full curve]"
same,Potency,[7],"inconclusive: 7.96 µM [inhibitor, partial curve]"
same,Potency,[3],"inconclusive: 7.96 µM [inhibitor, single point]"
same,Potency,NIH3T3,"inconclusive: 14.2 µM [inhibitor, partial curve, poor fit]"
same,Potency,C33A,inactive
same,Potency,SKOV3,"inconclusive: 17.8 µM [cytotoxic, single point]"
same,Potency,Tov-21-G,inactive
CCC1=CC2CN(C1)Cc1c([nH]c3ccccc13)[C@@](C(=O)OC)(c1cc3c(cc1OC)N(C)[C@H]1[C@@](O)(C(=O)OC)[C@H](OC(C)=O)[C@]4(CC)C=CCN5CC[C@]31[C@@H]54)C2 (stereo partly drawn),Potency,[5],active: 7.09 µM
same,Potency,[7],active: 0.0796 µM
same,Potency,[6],"inconclusive: 5.82 µM [inhibitor, partial curve]"
same,Potency,NIH3T3,"inconclusive: 0.142 µM [inhibitor, full curve]"
same,Potency,C33A,"inconclusive: 0.178 µM [cytotoxic, full curve, poor fit]"
same,Potency,HeLa,active: 0.126 µM
same,Potency,Hek293T,"inconclusive: 0.355 µM [cytotoxic, full curve]"
same,Potency,OV90,"inconclusive: 1.12 µM [cytotoxic, full curve]"
same,Potency,PA-1,"inconclusive: 0.126 µM [cytotoxic, full curve, poor fit]"
same,Potency,SKOV3,"inconclusive: 10 µM [cytotoxic, partial curve, poor fit]"
same,Potency,Tov-21-G,active: 0.0891 µM
same,Potency,Tov112D,active: 0.0708 µM
c1ccc(-c2csc(N3CCOCC3)n2)cc1,Potency,[8],inactive
same,Potency,[6],"inconclusive: 2.38 µM [inhibitor, full curve, poor fit]"
same,Potency,NIH3T3,"inconclusive: 6.51 µM [inhibitor, single point]"
same,Potency,CAOV3,"inconclusive: 0.708 µM [rising, full curve, poor fit]"
same,Potency,HeLa,"inconclusive: 28.2 µM [cytotoxic, partial curve, poor fit]"
same,Potency,Hek293T,"inconclusive: 39.8 µM [cytotoxic, single point]"
same,Potency,PA-1,inactive
CCCC1=CC2=C(CO1)C(=O)C(C)(O)C(OC(=O)c1c(C)cc(OC)cc1O)C2 (stereo not drawn),Potency,[5],inactive
same,Potency,[7],inactive
same,Potency,[3],"inconclusive: 8.93 µM [inhibitor, partial curve, poor fit]"
same,Potency,[4],"inconclusive: 20.7 µM [activator, partial curve, poor fit]"
same,outcome,NIH3T3,inactive
same,Potency,C33A,inactive
same,Potency,Es-2,inactive
COC1/C=C/C(C)(O)C(SCC(N)C(=O)O)CC(=O)OC(C)C(C)CC/C=C/1C (stereo not drawn),Potency,[2],inactive
same,Potency,[7],"inconclusive: 15.9 µM [inhibitor, single point]"
same,Potency,[3],"inconclusive: 14.2 µM [inhibitor, single point]"
same,Potency,NIH3T3,"inconclusive: 6.32 µM [inhibitor, partial curve]"
same,Potency,CAOV3,inactive
same,Potency,PA-1,inactive
